Laboratory results as given in the supplement of paper PMC10126150.
Values marked as one replicate rest on one cluster of the flow cell; about a third of the high ones do not repeat.

Test system: ATP
Test: switch fluorescence ratio, 500 uM ATP over buffer (Cy3 cluster intensity, sum of 5 cycles each) (fold (ratio)); higher = stronger signal-on switching upon ATP binding; sequences stand for … in TCGTCGGCAGCGTCAGATGTGTATAAGAGACAGTTTTTTTTTTTTTTTTTTTTTTTTT…TC
Details: aptamer strand: ATP DNA aptamer (quencher-CACCTGGGGGAGTATTGCGGAGGAAGG + anchor), 100 nM annealed; ATP concentration: 500 uM; one replicate
Outline: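 Clusters carrying Cy3-labelled switching strands on a modified Illumina MiSeq flow-cell were annealed to 100 nM quencher-labelled ATP aptamer and imaged in selection buffer. They were imaged again after 15 min with 500 uM ATP at 22 °C, over five buffer/ATP cycles with NaOH stripping and re-annealing in between. For each cluster, the fluorescence ratio is the summed Cy3 intensity of the target cycles divided by that of the buffer cycles, averaged per switch-domain sequence. Clusters outside 100-1000 RFU were left out.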
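Further: ATP exposure 15 min at 22 °C before imaging.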

| Sequence | switch fluorescence ratio |
| --- | --- |
| GGTGGTTCCC | 1.01 |
| AGAGGGACGG | 0.982 |
| ATAGTGTACC | 1.07 |
| AAGGACGTTT | 1.04 |
| AATGGTGGG | 0.999 |
| AAATCCCCTT | 0.972 |
| GACGGGTGCA | 1.1 |
| GGGGTTCTG | 1 |
| CCTCTCGTTA | 3.33 |
| ATTAGGCCTG | 1.01 |
| TAGAAACAGC | 1 |
| GTCCAAGAAA | 0.997 |
| ATGTATCTGT | 1.02 |
| TCGTAGCAGA | 3.35 |
| TAACTTGGGT | 1.02 |
| CGGTGGTGAC | 0.973 |
| TCTCAGTGCG | 0.999 |
| CACCTTTTCT | 0.975 |
| CCTGGGGC | 1.04 |
| GGCTGAGGTG | 1.13 |
| CTTAAGGCTT | 0.972 |
| TGAATTCGAG | 1.05 |
| TAGGAAGGAT | 0.972 |

| Sequence | switch fluorescence ratio |
| --- | --- |
| TCAATGGGAC | 0.989 |
| GTAGTTTGTT | 0.991 |
| CCACCCTATC | 1.88 |
| GCTAGGTGGG | 0.94 |
| CGGACTAGTG | 0.973 |
| AGGTCAGGAA | 0.961 |
| AAATGTCTTC | 0.942 |
| TTGGCCCGTA | 1.06 |
| CGGTGCTTGG | 0.972 |
| GAGGGGTGAA | 0.987 |
| CATGTAGATA | 0.957 |
| AGGAAGATT | 1 |
| AGTAGGCTTG | 1.02 |
| TACAGGGTGC | 1.16 |
| TAGAAAGTT | 0.986 |
| AAATCTGCCT | 1.25 |
| GGCCCTTTTG | 0.963 |
| GTTTGGATGA | 0.964 |
| CCGCTAGGGA | 0.989 |
| TATCGCTGTT | 0.998 |
| GGTAAAACGT | 1 |
| CGTCCGAACT | 1.21 |
| CGGAGCCGGA | 1.07 |

| Sequence | switch fluorescence ratio |
| --- | --- |
| ATATGGGCGC | 1.03 |
| GAGTTAGAAT | 0.993 |
| GATTTTGCA | 0.966 |
| CAGAGGCCTA | 1.02 |
| CGGGATTACT | 1.11 |
| CGTAATGAG | 0.974 |
| CGGGTGCTCG | 0.954 |
| TTGGGATCAA | 0.963 |
| CGTGCCAGGT | 1.1 |
| TGGGTCTGTG | 0.956 |
| AGACGTGGGT | 1.03 |
| TGTGAGCGCA | 1.01 |
| GACCTAACTG | 1.04 |
| GTGATCTCTC | 1.03 |
| CGTTTGGAAA | 0.975 |
| AAATCGTTGG | 1.02 |
| TTTGTCAGC | 0.994 |
| TTCGCGAGAT | 1.14 |
| CTTCTATTTG | 0.996 |
| AGGAGCGA | 1.06 |
| TTGCAGCACA | 1.43 |
| TAACAAATTC | 0.992 |
| TGATCGGTA | 0.962 |

| Sequence | switch fluorescence ratio |
| --- | --- |
| CAGAGACTCG | 0.972 |
| TTTGCCGTAC | 0.969 |
| CCGATCGGGT | 1.67 |
| CTTTTTTACT | 1.05 |
| ACACGGAGGC | 0.976 |
| ATCAAAAGGT | 1.04 |
| GTTTTAGAAT | 0.985 |
| GCGGAATCGG | 0.987 |
| GATAGGTCGA | 0.953 |
| TTTACTCTCG | 1.03 |
| AACGCGGTAA | 1.06 |
| TAAGCCTAG | 0.991 |
| ACCGTTTACG | 1.01 |
| ATAAGATTTG | 0.981 |
| CCTTTTAAC | 0.996 |
| ATACAGTCAC | 1.21 |
| GTGTTCGAAG | 0.956 |
| GGGACGGGAG | 0.973 |
| CCCGTAGGCA | 1.03 |
| ATTTTGCGCA | 1 |
| AAACATGTGG | 0.986 |
| AATACTGTCT | 1.04 |
| TAGTTAGCTC | 1.04 |

| Sequence | switch fluorescence ratio |
| --- | --- |
| GTTCTATAG | 1.06 |
| GAGCTATGA | 1.01 |
| CTGGTATTT | 0.967 |
| AGAGAACGAT | 1.02 |
| GCAACTTAGT | 0.99 |
| TTGATCTGTG | 0.99 |
| CGCTGCGCGG | 1 |
| GGAGTGAAAT | 1.84 |
| AAGCGAGGGT | 1.03 |
| CAAGATGGGT | 0.995 |
| CGTTCATAGC | 1.05 |
| CCTGCATAGT | 1.33 |
| GTGTCTGGG | 0.985 |
| ATCCGCGGCG | 1.14 |
| GTCGGAAGAT | 1.04 |
| CATTGCGTGT | 0.972 |
| TTTCGCCAGG | 1.45 |
| ACTTAGAGG | 0.955 |
| GACGCACAA | 3.93 |
| GGTAAGGTTT | 1.03 |
| ATGCCATATG | 0.991 |
| CTGAGTTTAG | 1 |
| AACAGGCCCA | 1.04 |

| Sequence | switch fluorescence ratio |
| --- | --- |
| CCAGGGCTGC | 1.05 |
| CCACTGGGAT | 1.08 |
| TAGATTTTCC | 1.04 |
| CAATACTCGT | 2.17 |
| ATTGGTTCTA | 1.07 |
| CCTCCAGAGT | 2.93 |
| AGCTTAGTCG | 0.958 |
| GTGAAAATGC | 1.03 |
| CCGGGTGCTT | 2.09 |
| CGGCTGGTTA | 1.01 |
| GCAGGGTGTG | 1.02 |
| GGCGACCGCA | 1.03 |
| ACCCTTACCC | 1.43 |
| TACAAGGTCG | 0.988 |
| GTTATGATTG | 0.946 |
| CCGGTATTGG | 1.02 |
| AATGTGCTAA | 1 |
| ATGAGTGG | 0.999 |
| GCGATATGTA | 1.03 |
| CGAGAATGAT | 0.972 |
| GGGAACTCAC | 1.16 |
| AACCGATGGA | 0.978 |
| TAGCGGCGGA | 0.986 |

| Sequence | switch fluorescence ratio |
| --- | --- |
| TCGATGCAGG | 1.18 |
| AAGTCAGCAG | 0.996 |
| AGATAAAGAA | 1.01 |
| TTAAGCCCAG | 1.26 |
| TGTAGGGCTG | 1 |
| GTGCTTGGAG | 1.04 |
| ACCTTGGGTA | 0.993 |
| TTACGGCATC | 2.36 |
| TCTGGCGATG | 0.976 |
| GACGGAATGA | 2.76 |
| CACAAAGCGT | 1.03 |
| AACTTCAGAG | 0.94 |
| ATTAACCTAG | 1.03 |
| GGCGAACTTC | 1.03 |
| ACCGGCTACT | 1.09 |
| AAACGCGGCA | 1.08 |
| AGTACGTCCT | 1.05 |
| TTTGTTGTT | 1 |
| GCTTGCTGAG | 0.998 |
| TGAGGCCAAA | 1.05 |
